Out of some 310,000 compounds screened, about 14,000 (4.5%) showed an effect of 50% or more. Effects have a minus sign here. The list shows a part of the results.
Biological target: human ether-à-go-go-related gene (hERG) potassium channel (human, UniProt Q12809)
Test: primary screen, population patch clamp on CHO cells stably expressing hERG
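Also: peak tail current of the secondary pulse compared with the same well before compound.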

Chain of human ether-à-go-go-related gene (hERG) potassium channel (Q12809 whole entry, looked up): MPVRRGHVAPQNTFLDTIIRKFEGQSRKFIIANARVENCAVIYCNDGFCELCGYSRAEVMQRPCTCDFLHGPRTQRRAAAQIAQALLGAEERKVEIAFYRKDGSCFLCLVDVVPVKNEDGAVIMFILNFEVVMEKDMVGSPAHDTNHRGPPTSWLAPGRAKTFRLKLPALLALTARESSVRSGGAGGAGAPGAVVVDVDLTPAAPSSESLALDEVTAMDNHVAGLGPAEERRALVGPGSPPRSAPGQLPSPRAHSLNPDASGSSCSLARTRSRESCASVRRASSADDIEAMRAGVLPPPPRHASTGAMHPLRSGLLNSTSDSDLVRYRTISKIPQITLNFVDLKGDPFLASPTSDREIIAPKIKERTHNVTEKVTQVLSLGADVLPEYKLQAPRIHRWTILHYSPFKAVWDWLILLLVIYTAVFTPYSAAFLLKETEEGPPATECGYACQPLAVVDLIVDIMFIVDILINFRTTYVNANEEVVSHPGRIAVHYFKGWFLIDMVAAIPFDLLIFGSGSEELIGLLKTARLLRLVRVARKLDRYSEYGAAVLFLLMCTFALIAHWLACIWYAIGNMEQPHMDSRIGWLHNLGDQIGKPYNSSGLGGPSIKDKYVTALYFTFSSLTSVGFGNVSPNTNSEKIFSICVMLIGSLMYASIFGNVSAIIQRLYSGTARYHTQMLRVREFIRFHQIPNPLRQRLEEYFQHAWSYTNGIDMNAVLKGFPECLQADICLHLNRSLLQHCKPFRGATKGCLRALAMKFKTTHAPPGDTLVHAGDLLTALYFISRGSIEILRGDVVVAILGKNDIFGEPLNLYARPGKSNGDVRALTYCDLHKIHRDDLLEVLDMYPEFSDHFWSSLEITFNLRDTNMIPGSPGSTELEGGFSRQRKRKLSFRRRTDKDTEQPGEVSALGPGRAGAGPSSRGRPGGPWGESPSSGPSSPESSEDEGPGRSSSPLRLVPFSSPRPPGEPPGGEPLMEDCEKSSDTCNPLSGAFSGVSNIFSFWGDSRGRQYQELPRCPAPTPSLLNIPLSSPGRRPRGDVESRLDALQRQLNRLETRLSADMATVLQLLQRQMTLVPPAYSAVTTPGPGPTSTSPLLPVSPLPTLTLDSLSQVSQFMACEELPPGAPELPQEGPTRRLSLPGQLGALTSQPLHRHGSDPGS

SMILES | hERG current change (%, negative = inhibition) at 10uM [%]
COCCN(C(=O)CNC(=O)c1ccco1)C(C(=O)NC1CCCC1)c1ccccc1 (stereo not drawn) | -6.83
O=C(COc1ccc(S(=O)(=O)NC2CCCCC2)cc1)Nc1ccc2c(c1)OCCO2 | -0.462
CC1CCCCC1N=C1NC(C)(C)CS1 (stereo not drawn) | 21.8
CCOC(=O)C1=C(CSc2nc3c(cc2C#N)CN(C)CC3)OC(N)=C(C#N)C1c1ccc(Cl)cc1 (stereo not drawn) | -2.47
Cc1ccc(Cl)c(OCCCN(C)Cc2ccccc2)c1.O=C(O)C(=O)O | -30.6
O=C(c1ccccc1)c1ccc(Cn2cc(CCCO)nn2)cc1 | -10.6
CCCCCOC(=O)Nc1nnc(CCC)s1 | -16.7
COCCCNC(=O)CNC(=O)c1nn(-c2ccc(OC)c(Cl)c2)c(=O)c2ccccc12 | 8.9
COc1ccc(C(C)(C)C)cc1NC(=O)c1ccc2ncsc2c1 | 0.556
O=C(O)CN1C(=O)/C(=C\c2cccc(OCc3ccccc3F)c2)SC1=S | 5.41
Cc1ccc(CN(Cc2ccccc2)C(=S)Nc2ccccc2C)o1 | 36.2
OCC[C@H]1C[C@H](O)[C@@H](O)[C@@]2(Cc3ccccc3CCO2)O1 | 1.27
Fc1ccc(OCc2nn3c(Cn4nnc5ccccc54)nnc3s2)cc1 | -2.88
C/C(=N\Nc1ccccc1C)c1cccnc1.Cl | 12.2
CCCCNC(=O)COn1nnc2ccc(S(=O)(=O)N3CCOCC3)cc21 | -1.28
O=c1/c(=C/c2ccco2)sc2n1CN(c1ccccc1)CN=2 | 5.55
COc1cc(CNc2cccc3[nH]c(C(F)(F)F)nc23)cc(OC)c1.Cl | 6.84
COc1ccc2nc(N3CCC(O)CC3)c(C#N)cc2c1 | 4.39
CC(=O)Oc1ccccc1N(C(C)=O)S(=O)(=O)c1cccc([N+](=O)[O-])c1 | 6.28
CN1CCN(C(=O)C2=C[C@@H](c3ccc(C(F)(F)F)cc3)C[C@@H](OCc3ccc(CO)cc3)O2)CC1 | -52.6
O=C(NCc1n[nH]c(=S)n1-c1cccc(Cl)c1)c1cccs1 | 9.27
CS(=O)(=O)N(Cc1ccc(Cl)cc1)c1ccc(C(=O)NCCSc2ccccn2)cc1 | -30.5
O=C(CNC(=S)N(Cc1ccccc1)Cc1cccnc1)NC1CCCC1 | -9.37
CN(CC(=O)Nc1cccc(F)c1)C(=O)C1CC(=O)N(CCc2ccccc2)C1 (stereo not drawn) | -4.77
